# According to PubChem BioAssay (Tox21):
# Inconclusive results are not listed. Unless noted, calls follow the shape of the dose curve; as a rule, active = well fitted curve in the direction sought with a large enough effect in the repeat runs; inconclusive = weak or mixed curves; inactive = no such curve, though single readings can be large; an effect the other way counts as inactive or inconclusive. Where a structure was tested more than once in an assay, its records may differ in their call. Not every entry of the source has a single result; some have several. Only these are listed. There may be further records. The values listed for one entry are repeats (runs, samples, wells, individuals or studies). What stands in brackets tells the records apart. Letters count within one entry.
# Legend:
# [1] = qHTS assay to identify small molecule antagonists of the androgen receptor (AR) signaling pathway using the MDA cell line - cell viability counter screen (AID 743041; also: nearly all actives have a fitted effect of over 45% in size)
# In short: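 MDA-kb2 AR-luc human breast carcinoma cells (MMTV-luciferase, AR/GR responsive) were treated with compounds plus R1881 agonist for 16 h at 37 °C. Viability was read as CellTiter-Fluor fluorescence in the same wells as the reporter assay.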
# [2] = qHTS assay to identify small molecule antagonists of the TGF-beta/Smad signaling pathway - cell viability counter screen (AID 1346824); also: nearly all actives have a fitted effect of over 50% in size
# Excerpt: U.S. Tox21 Program National Center for Advancing Translational Sciences [NCATS] NIH Chemical Genomics Center [NCGC] U.S. Environmental Protection Agency [EPA] National Institutes of Environmental Health Sciences [NIEHS] National Toxicology Program [NTP] U.S. Food and Drug Administration [FDA] Tox21 Assay Overview: Transforming growth factor beta (TGF-beta) superfamily consists of a large number of structurally related dimeric proteins that act as hormones or local mediators in regulating a wide range of biological functions. This superfamily includes TGF-betas themselves, the bone morphogenetic proteins (BMPs) and the activins. […]
# Tox21 Assay Protocol Summary: SBE-bla HEK 293T cells were dispensed at 4,000/well in 5 uL of assay medium into black wall/clear-bottom 1536-well plates using a Multidrop Combi (ThermoFisher Scientific, Waltham, MA) dispenser. […] Fluorescence intensity (405 nm excitation, 460 nm and 530 nm emissions) was measured using an Envision plate reader (PerkinElmer, Shelton, CT). For cytotoxicity read, 4 uL of CellTiter-Glo reagent (Promega Corporation, Madison, WI) was added to each well of the assay plates using FRD. After 30 min incubation at room temperature, the luminescence intensity was measured using ViewLux plate reader (PerkinElmer).
# [3] = qHTS assay for small molecules that induce genotoxicity in human embryonic kidney cells expressing luciferase-tagged ATAD5 - cell viability (AID 651634; calls by dose curve; also: nearly all actives have a fitted effect of over 25% in size)
# In short: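 Cytotoxicity counterscreen in HEK293T cells bearing an ATAD5-luciferase reporter: live-cell protease activity measured by CellTiter-Fluor fluorescence after 15.5 hr compound exposure.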
# [4] = A CellTox Green Cytotoxicity Assay to monitor cytotoxicity in HEK293 cells - 24 hour (AID 1224875); also: nearly all actives have a fitted effect of over 45% in size
# In short: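 Cytotoxicity was tracked continuously in HEK293 cells by a DNA-binding dye excluded from viable cells. Compounds were transferred in DMSO 5 h after seeding; fluorescence was recorded at intervals up to 40 h.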
# [5] = qHTS assay to identify small molecule antagonists of the peroxisome proliferator-activated receptor gamma (PPARg) signaling pathway - cell viability counter screen (AID 743194); also: nearly all actives have a fitted effect of over 55% in size
# In short: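 PPARg-UAS-bla HEK293H cells were plated, rested 5 h at 37 C, then treated with compounds plus rosiglitazone (50 nM final) for 17 h at 37 C; viability was then read by CellTiter-Glo luminescence after 30 min at room temperature.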
# Potency is read from the fitted curve at half-maximal effect.
compound,measurement,setting,value
CC(C)N(C(=O)CCl)c1ccccc1,Potency,[1],inactive [sample A] and active: 54.5 µM [sample B]
same,Potency,[2],inactive [sample A] and active: 49 µM [sample B]
C[C@]12C/C(=C/O)C(=O)C[C@@H]1CC[C@@H]1[C@@H]2CC[C@@]2(C)[C@H]1CC[C@]2(C)O,Potency,[3],inactive [sample A] and active: 43.7 µM [sample B]
same,Potency,[4],active: 24.8 µM [sample A] and inactive [sample B]
CN(C)C(=S)SSC(=S)N(C)C,Potency,[5],inactive [sample A] and active: 29.8 µM [sample B]
O.O.O.O.O.O.O.O=S(=O)([O-])[O-].[Co+2],Potency,[3],active: 26.6 µM [sample A] and inactive [sample B]
